{"source": "patent US7745619B2", "about": "“Vinca derivatives” (priority 2003, dated 2010)", "tested_on": "NCI-H322M", "experiment": "cells", "details": "Homo sapiens", "source_text": "The following data in Table 4 summarize the growth inhibition properties of several compounds of the present invention against 60-human transformed cell lines.", "note": "Read-outs that look alike come from different tables or passages of the source."}
{"smiles": "C#Cc1ccc2[nH]c3c(c2c1)CCN1C[C@H](C[C@@](O)(CC)C1)C[C@]3(C(=O)OC)c1cc2c(cc1OC)N(C)[C@H]1[C@@](O)(C(=O)OC)[C@H](OC(C)=O)[C@]3(CC)C=CCN4CC[C@]21[C@@H]43", "note": "[Example 17, 12′-ethynylvinblastine]", "values": [{"measurement": "GI50", "setting": "read-out: GI50", "value": "< 10", "unit": "nM"}]}
{"smiles": "CC[C@]1(O)C[C@H]2CN(CCc3c([nH]c4ccc(C#Cc5ccccc5)cc34)[C@@](C(=O)OC)(c3cc4c(cc3OC)N(C)[C@H]3[C@@](O)(C(=O)OC)[C@H](OC(C)=O)[C@]5(CC)C=CCN6CC[C@]43[C@@H]65)C2)C1", "note": "[Example 19, 12′-(2-phenylethynyl) vinblastine]", "values": [{"measurement": "GI50", "value": 429, "unit": "nM"}]}
{"smiles": "CCCC(=O)/C=C/c1ccc2[nH]c3c(c2c1)CCN1C[C@H](C[C@@](O)(CC)C1)C[C@]3(C(=O)OC)c1cc2c(cc1OC)N(C)[C@H]1[C@@](O)(C(=O)OC)[C@H](OC(C)=O)[C@]3(CC)C=CCN4CC[C@]21[C@@H]43", "note": "[Example 29, 12′-(3-oxohex-1-enyl)vinblastine]", "values": [{"measurement": "GI50", "value": 955, "unit": "nM"}]}
